The source of these data is the antibiotic and cytotoxicity screens of Wong et al. (2023).

This is one part of the list.

One experiment concerns HSkMC. The experiment is described as follows: cytotoxicity call (relative viability < 0.9). Conditions: 10 µM.
The subject of another experiment is HepG2. Put plainly: cytotoxicity call (relative viability < 0.9). To be noted: 10 µM.
For the next experiment, the system named is S. aureus RN4220. The experiment is described as follows: growth inhibition call (relative growth <= 0.2). Conditions: 50 µM.

Turning to `CCN1CCN(c2ccc(Nc3cc(N(C)C(=O)Nc4c(Cl)c(OC)cc(OC)c4Cl)ncn3)cc2)CC1`, the cytotoxicity call in the experiment on HSkMC (human skeletal muscle cells) and with HepG2 was “active” throughout. For the same molecule, in the experiment on S. aureus RN4220, the growth inhibition call is “inactive”.
As to `COc1ccc(CN(C)C[C@@H]2OCCCC[C@H](C)Oc3ccc(NC(=O)NC4CCCCC4)cc3C(=O)N([C@H](C)CO)C[C@H]2C)cc1`, the cytotoxicity call in the experiment with HSkMC and in the experiment with HepG2 was “inactive” in each case. Besides, the growth inhibition call with S. aureus RN4220 was “inactive”.
As for `C[C@@H]1CN([C@H](C)CO)C(=O)c2cccc(NS(=O)(=O)c3cccs3)c2O[C@H]1CN(C)S(=O)(=O)c1ccc(F)cc1`, the cytotoxicity call in the experiment with HSkMC and in the experiment on HepG2 was “inactive” throughout. Also, the growth inhibition call in the experiment with S. aureus RN4220 was “inactive”.
For `C[C@H]1CN([C@@H](C)CO)C(=O)c2cccc(NC(=O)c3nc4ccccc4s3)c2O[C@@H]1CN(C)Cc1ccc(Cl)c(Cl)c1`, the cytotoxicity call in the experiment with HSkMC and in the experiment with HepG2 was “inactive” each time. Besides, in the experiment on S. aureus RN4220, the growth inhibition call is “inactive”.
`C[C@@H]1CN([C@@H](C)CO)C(=O)c2cc(NC(=O)NC3CCCCC3)ccc2O[C@@H](C)CCCCO[C@@H]1CN(C)CC1CCCCC1`: the cytotoxicity call with HSkMC and in the experiment on HepG2 was “inactive” throughout. The growth inhibition call in the experiment with S. aureus RN4220 is “inactive”.
With `C[C@H]1CN([C@@H](C)CO)C(=O)Cc2cc(NC(=O)Nc3cccc4ccccc34)ccc2O[C@H]1CN(C)S(=O)(=O)c1ccc(Cl)cc1`, the cytotoxicity call in the experiment with HSkMC was “inactive”. In addition, in the experiment on HepG2, the cytotoxicity call is “active”. Further, the growth inhibition call in the experiment on S. aureus RN4220 is “inactive”.
Regarding `Cc1ccc(S[C@]2(C(=O)NC3CC3)CC(=O)N(Cc3ccccc3Cl)[C@@H]2c2ccc(CO)cc2)cc1`, the cytotoxicity call in the experiment with HSkMC and with HepG2 was “inactive” each time. Moreover, in the experiment on S. aureus RN4220, the growth inhibition call is “inactive”.
On to `C[C@@H]1CCCCO[C@@H](CN(C)C(=O)Nc2ccccc2)[C@@H](C)CN([C@H](C)CO)C(=O)c2cc(NC(=O)Nc3ccc(C(F)(F)F)cc3)ccc2O1`, for which, in the experiment with HSkMC, the cytotoxicity call was “inactive”. Also, the cytotoxicity call in the experiment on HepG2 was “active”. Moreover, the growth inhibition call with S. aureus RN4220 was “inactive”.
